The other results are listed elsewhere or left out. At the low end of the ranking the order means little.
Target: GST-SBP-SLBP (stem-loop binding protein) (UniProt Q14493)
Assay: targeted RNA Bind-n-Seq;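 further: DESeq read counts versus GST-SBP nonspecific binding control pulldown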
Settings: RBNS binding buffer: 25 mM Tris pH 7.5, 150 mM KCl, 3 mM MgCl2, 0.1% Tween, 0.5 mg/mL BSA, 1 mM DTT; 27 nM protein, 750 pM RNA pool; temperature not stated; high values mean tight binding

| Sequence | binding signal (log2 fold change) |
| --- | --- |
| GGUCACGUCUCAAUCAACUCAUUUUCCAGGGAAACCCCUGGUAAUUUCAACAGCUCGCAGUCAAG | -0.0469 |
| GGUCACGUCUCAAUCAACUCUUUCUCCAGGGAAAUCCCUGGCUUUCUCAACAGCUCGCAGUCAAG | 0.0186 |
| GGUCACGUCUCAAUCAACUCUAAAGAGGGGGGGAAAACCCCUUUGCCCUCAUACUCAACAGCUCGCAGUCAAG | 0.22 |
| GGUCACGUCUCAAUCAACUCUUCGCCAGGAGUUUCCUCCUGUAUACUCAACAGCUCGCAGUCAAG | -0.0422 |
| GGUCACGUCUCAAUCAACUCUUCCCCAGGAGUUUACUCCUGUAAUCUCAACAGCUCGCAGUCAAG | 0.0304 |
| GGUCACGUCUCAAUCAACUCAAUCUCAGGAGUUUACUCCUGCAAAUUCAACAGCUCGCAGUCAAG | 0.045 |
| GGUCACGUCUCAAUCAACUCUUUCUCCAGGGAAAGCCCUGGUUAUCUCAACAGCUCGCAGUCAAG | 0.274 |
| GGUCACGUCUCAAUCAACUCAUCUCCAGGAGUUUUCUCCUGCUAUCUCAACAGCUCGCAGUCAAG | 0.106 |
| GGUCACGUCUCAAUCAACUCGUUUUCAGGAGUUUCCUCCUGCAAUUUCAACAGCUCGCAGUCAAG | 0.0113 |
| GGUCACGUCUCAAUCAACUCUUCCUCCAGGGAAACCCCUGGUUAUGUCAACAGCUCGCAGUCAAG | 0.0594 |
| GGUCACGUCUCAAUCAACUCCCUGGAGGGGGGGAAAACCCCUUUACCCUCAACAUCAACAGCUCGCAGUCAAG | 0.108 |
| GGUCACGUCUCAAUCAACUCUAUCUCCAGGGAAAACCCUGGUAUUCUCAACAGCUCGCAGUCAAG | 0.277 |
| GGUCACGUCUCAAUCAACUCUUCUUCCAGGGAAAGCCCUGGUUUUCUCAACAGCUCGCAGUCAAG | -0.0258 |
| GGUCACGUCUCAAUCAACUCUUUUCCAGGAGUUUUCUCCUGUAAUCUCAACAGCUCGCAGUCAAG | -0.263 |
| GGUCACGUCUCAAUCAACUCUUUCGCCAGGGAAACCCCUGGGUAUCUCAACAGCUCGCAGUCAAG | -0.0435 |
| GGUCACGUCUCAAUCAACUCUUUCCCCAGGGAAACCCCUGGCAAACUCAACAGCUCGCAGUCAAG | 0.143 |
| GGUCACGUCUCAAUCAACUCAUCGGCAGGAGUUUACUCCUGGAAAUUCAACAGCUCGCAGUCAAG | 0.227 |
| GGUCACGUCUCAAUCAACUCAUCGUCCAGGGAAAUCCCUGGUAAUCUCAACAGCUCGCAGUCAAG | 0.0367 |
| GGUCACGUCUCAAUCAACUCACUCGAGGGGGGGAAAACCCCUUUACCCUCAUAAUCAACAGCUCGCAGUCAAG | 0.257 |

| Sequence | binding signal (log2 fold change) |
| --- | --- |
| GGUCACGUCUCAAUCAACUCAUCUUCCAGGGAAAUCCCUGGUUUUCUCAACAGCUCGCAGUCAAG | 0.00601 |
| GGUCACGUCUCAAUCAACUCAACUUCCAGGGAAAUCCCUGGCUAACUCAACAGCUCGCAGUCAAG | -0.00946 |
| GGUCACGUCUCAAUCAACUCAACUCCCAGGGAAAACCCUGGUUUACUCAACAGCUCGCAGUCAAG | -0.291 |
| GGUCACGUCUCAAUCAACUCAUCUUCAGGAGUUUGCUCCUGUAAUUUCAACAGCUCGCAGUCAAG | 0.0838 |
| GGUCACGUCUCAAUCAACUCAGUCCCCAGGGAAAUCCCUGGUUUUUUCAACAGCUCGCAGUCAAG | -0.0781 |
| GGUCACGUCUCAAUCAACUCAAUGUCCAGGGAAAACCCUGGUUUUUUCAACAGCUCGCAGUCAAG | -0.0911 |
| GGUCACGUCUCAAUCAACUCUACAGAGGGGGGGAAAACCCCUUUACCCUCAUCGUCAACAGCUCGCAGUCAAG | -0.171 |
| GGUCACGUCUCAAUCAACUCAUUUCCAGGAGUUUUCUCCUGCAAUUUCAACAGCUCGCAGUCAAG | 0.0958 |
| GGUCACGUCUCAAUCAACUCUUCGCCAGGAGUUUCCUCCUGCUUUUUCAACAGCUCGCAGUCAAG | -0.148 |
| GGUCACGUCUCAAUCAACUCAUCGGAGGGGGGGAAAACCCCUUUACCCUCACCAUCAACAGCUCGCAGUCAAG | -0.166 |
| GGUCACGUCUCAAUCAACUCAAACGAGGGGGGGAAAACCCCUUUGCCCUCAUCAUCAACAGCUCGCAGUCAAG | 0.219 |
| GGUCACGUCUCAAUCAACUCUUUAGAGGGGGGGAAAACCCCUUUGCCCUCAUAAUCAACAGCUCGCAGUCAAG | 0.271 |
| GGUCACGUCUCAAUCAACUCAUUCUCCAGGGAAACCCCUGGCAUUCUCAACAGCUCGCAGUCAAG | -0.158 |
| GGUCACGUCUCAAUCAACUCAUUUUCAGGAGUUUGCUCCUGUAUUUUCAACAGCUCGCAGUCAAG | -0.0738 |
| GGUCACGUCUCAAUCAACUCAUCUUCCAGGGAAACCCCUGGCUUACUCAACAGCUCGCAGUCAAG | 0.0942 |
| GGUCACGUCUCAAUCAACUCAUUCCCAGGAGUUUCCUCCUGUUAAUUCAACAGCUCGCAGUCAAG | 0.0858 |
| GGUCACGUCUCAAUCAACUCUACUCCAGGAGUUUACUCCUGUAAUUUCAACAGCUCGCAGUCAAG | -0.338 |
| GGUCACGUCUCAAUCAACUCAUUCCCAGGAGUUUCCUCCUGUAAACUCAACAGCUCGCAGUCAAG | 0.164 |
